# From PubChem BioAssay AID504333 (National Center for Advancing Translational Sciences (NCATS), 2011)
# The campaign covered roughly 360,000 compounds. About 16,000 (4.4%) were called active. The inconclusive results got no clear call from the source; some entries with a clear call stand among them for comparison. Calls come from the whole dose curve; as a rule, active = well fitted inhibition curve with a large enough effect; inconclusive = small, poorly fitted or top-dose-only effect; inactive = no such curve, though single readings can be large or run the other way. Where the call is inconclusive, the potency comes from a doubtful curve fit.
# Molecular target: Bromodomain adjacent to zinc finger domain protein 2B (Homo sapiens) (UniProt Q9UIF8)
# Chain of UniProt Q9UIF8 (Q9UIF8 whole entry, looked up, the tested form may be a part): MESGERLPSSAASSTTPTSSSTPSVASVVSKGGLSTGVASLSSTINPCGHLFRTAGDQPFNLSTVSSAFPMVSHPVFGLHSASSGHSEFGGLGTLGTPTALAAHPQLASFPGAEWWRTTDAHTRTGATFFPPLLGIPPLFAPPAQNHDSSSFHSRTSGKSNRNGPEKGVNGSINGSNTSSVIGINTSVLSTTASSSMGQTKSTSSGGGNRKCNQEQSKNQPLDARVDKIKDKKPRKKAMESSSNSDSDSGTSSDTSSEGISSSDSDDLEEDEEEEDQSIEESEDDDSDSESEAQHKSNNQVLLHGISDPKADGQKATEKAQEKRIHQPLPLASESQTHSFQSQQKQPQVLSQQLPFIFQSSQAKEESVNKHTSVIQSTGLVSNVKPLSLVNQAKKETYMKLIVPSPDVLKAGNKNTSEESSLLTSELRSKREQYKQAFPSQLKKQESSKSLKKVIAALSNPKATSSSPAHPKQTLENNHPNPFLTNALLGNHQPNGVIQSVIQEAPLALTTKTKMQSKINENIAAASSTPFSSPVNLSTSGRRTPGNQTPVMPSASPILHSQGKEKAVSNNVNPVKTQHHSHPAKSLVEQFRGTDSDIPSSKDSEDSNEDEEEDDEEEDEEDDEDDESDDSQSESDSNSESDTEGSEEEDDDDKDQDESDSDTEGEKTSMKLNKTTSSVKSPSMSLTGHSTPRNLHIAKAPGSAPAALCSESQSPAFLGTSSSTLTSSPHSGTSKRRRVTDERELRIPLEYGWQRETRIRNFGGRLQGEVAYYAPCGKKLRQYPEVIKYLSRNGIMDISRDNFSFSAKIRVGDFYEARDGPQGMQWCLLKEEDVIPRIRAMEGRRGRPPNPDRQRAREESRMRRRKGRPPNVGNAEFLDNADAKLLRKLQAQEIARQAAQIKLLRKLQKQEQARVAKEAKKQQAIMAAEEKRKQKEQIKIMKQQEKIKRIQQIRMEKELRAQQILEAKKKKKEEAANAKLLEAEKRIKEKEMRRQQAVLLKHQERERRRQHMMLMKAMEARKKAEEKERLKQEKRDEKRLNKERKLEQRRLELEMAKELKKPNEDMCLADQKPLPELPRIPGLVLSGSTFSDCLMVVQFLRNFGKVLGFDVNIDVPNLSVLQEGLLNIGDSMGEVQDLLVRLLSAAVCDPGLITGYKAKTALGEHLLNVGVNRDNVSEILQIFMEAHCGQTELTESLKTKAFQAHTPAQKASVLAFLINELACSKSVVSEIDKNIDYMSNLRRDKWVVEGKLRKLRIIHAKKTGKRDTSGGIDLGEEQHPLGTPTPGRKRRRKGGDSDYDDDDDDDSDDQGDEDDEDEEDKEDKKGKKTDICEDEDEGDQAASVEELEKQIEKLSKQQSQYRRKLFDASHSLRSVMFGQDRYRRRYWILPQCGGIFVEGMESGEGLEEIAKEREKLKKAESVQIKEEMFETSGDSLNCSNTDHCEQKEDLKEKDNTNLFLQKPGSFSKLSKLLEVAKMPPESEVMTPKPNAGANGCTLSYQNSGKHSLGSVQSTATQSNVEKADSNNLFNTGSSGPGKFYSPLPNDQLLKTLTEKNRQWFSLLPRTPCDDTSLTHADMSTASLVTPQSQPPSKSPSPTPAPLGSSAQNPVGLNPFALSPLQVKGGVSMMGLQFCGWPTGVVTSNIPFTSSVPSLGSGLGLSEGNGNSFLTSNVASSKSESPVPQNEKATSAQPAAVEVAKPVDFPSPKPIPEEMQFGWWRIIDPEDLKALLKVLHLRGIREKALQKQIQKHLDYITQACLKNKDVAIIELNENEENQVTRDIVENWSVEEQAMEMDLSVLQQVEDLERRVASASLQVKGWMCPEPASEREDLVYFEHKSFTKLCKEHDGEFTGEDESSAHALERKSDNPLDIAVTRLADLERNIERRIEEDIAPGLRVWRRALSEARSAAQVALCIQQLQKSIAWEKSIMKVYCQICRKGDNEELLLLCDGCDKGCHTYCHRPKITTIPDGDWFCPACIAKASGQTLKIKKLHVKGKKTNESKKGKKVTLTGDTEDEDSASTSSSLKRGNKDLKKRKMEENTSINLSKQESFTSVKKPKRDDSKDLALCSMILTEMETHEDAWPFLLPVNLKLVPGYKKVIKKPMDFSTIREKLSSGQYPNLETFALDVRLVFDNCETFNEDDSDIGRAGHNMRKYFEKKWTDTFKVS
# Experiment: qHTS Assay for Inhibitors of BAZ2B; note: nearly all actives have a fitted effect of over 60% in size
# Details: AlphaScreen BAZ2B-H3K14Ac peptide displacement; activity change, negative = inhibition: at 114 µM (top of the series)
# In short: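 AlphaScreen luminescence quantifies BAZ2B engagement of H3K14Ac peptide; the protein and biotinylated peptide are both at 50 nM final, buffer PBS pH 7.4 with 0.01% Tween-20, all steps at room temperature.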
# % is set by controls: 0 for no effect and ±100 for the full control effect; potency is the fitted concentration of half-maximal effect; tags give direction and shape of the fitted curve.
Structure (SMILES),Potency,"activity change, negative = inhibition"
Cc1c(-n2c(SCC(=O)O)nnc2-c2ccccc2Cl)c(=O)n(-c2ccccc2)n1C,"inconclusive: 89.1 µM [inhibitor, single point]",
O=C(Cn1c(NCCCCl)nc2ccccc21)c1ccccc1,"inconclusive: 100 µM [inhibitor, single point]",
Cc1cc(S(=O)(=O)NCc2ccccn2)c(Cl)cc1Cl,"inconclusive: 89.1 µM [inhibitor, single point]",
CC1=CC(C)=Nc2ccccc2N1,"inconclusive: 10 µM [inhibitor, partial curve, poor fit]",
O=C(CSc1nnc(-c2ccccc2)n1Cc1ccco1)NCc1ccc2c(c1)OCO2,,inactive: 1.35%
C=CCN1C(=O)C(Cc2cccc(Cl)c2)S/C1=N/N=C/c1ccco1 (configuration not stated),"inconclusive: 35.5 µM [inhibitor, full curve]",
COc1ccc(O)c(C(=O)CC(=O)c2ccccc2)c1,"inconclusive: 44.7 µM [inhibitor, partial curve]",
CCN(CC)c1ccc(/C=N/Nc2nc(C)cc(C)n2)cc1,"inconclusive: 44.7 µM [inhibitor, partial curve]",
CC1(C)CC(=O)C2=C(C1)OC1=C(C(=O)CC(C)(C)C1)C2c1ccc(O)cc1O,"inconclusive: 89.1 µM [inhibitor, single point]",
CCCN1CC=C2C(C#N)=C(N)C(C#N)(C#N)C(c3cc(OC)ccc3OC)C2C1 (configuration not stated),"inconclusive: 89.1 µM [inhibitor, single point]",
Clc1ccc(COn2nnc3ccccc32)c(Cl)c1,"inconclusive: 100 µM [inhibitor, single point]",
CC1CCc2sc3c(c2C1)c(=O)n(CC(=O)O)c(=O)n3Cc1ccc(Cl)cc1 (configuration not stated),"inconclusive: 89.1 µM [inhibitor, single point]",
C[C@@H](C(=O)Nc1cccnc1)n1c(=O)[nH]c2ccccc2c1=O,"inconclusive: 89.1 µM [inhibitor, single point]",
O=C(Nc1nnc(-c2ccc(Cl)cc2)o1)C1=COCCO1,active: 50.1 µM,
Cc1cccc(N2CCN(C(=O)C(Cc3ccccc3)n3cccc3)CC2)c1C (configuration not stated),"inconclusive: 89.1 µM [inhibitor, single point]",
COc1cc(OC)c(OC)cc1CNCCSc1nnnn1-c1ccccc1,"inconclusive: 70.8 µM [inhibitor, single point]",
CC(CC(=O)O)CC(=O)N1CCN(S(=O)(=O)c2cccs2)CC1 (configuration not stated),"inconclusive: 89.1 µM [inhibitor, single point]",
O=C(COC(=O)c1cccs1)NCc1ccco1,active: 50.1 µM,
COC(=O)c1ccc(Oc2nc(C(N)=O)cc(-c3ccccc3)n2)cc1,"inconclusive: 89.1 µM [inhibitor, single point]",
CCOc1ccc2nc(N(CCCN(C)C)C(=O)c3ccc(C(=O)c4ccccc4)cc3)sc2c1,"inconclusive: 28.2 µM [inhibitor, partial curve]",
O=C(O)c1cc(Nc2cc(Cl)c3nonc3c2[N+](=O)[O-])ccc1O,"inconclusive: 70.8 µM [inhibitor, single point]",
CC1(C)CC(=O)CC(=NCC(=O)O)C1,"inconclusive: 89.1 µM [inhibitor, single point]",
COc1ccc(Cl)cc1Nc1nnc(-c2ccncc2)s1,"inconclusive: 79.4 µM [inhibitor, single point]",
O=C(c1ccccc1)N1CCN(C2CCCCCC2)CC1,active: 56.2 µM,

Structure (SMILES),Potency,"activity change, negative = inhibition"
O=S(=O)(c1ccc(Br)cc1)c1nc(-c2ccccc2)oc1NCc1cccnc1,"inconclusive: 89.1 µM [inhibitor, single point]",
COc1cccc(CNC(=O)c2cc3cccc4c3n2CC(C)S4)c1OC (configuration not stated),,inactive: -4.26%
CC1(C)Cc2cccc(Oc3ccc(S(=O)(=O)N4CCCC4)cn3)c2O1,,inactive: -5.65%
O=C(CSC1CC(=O)N(CCc2ccccc2)C1=O)Nc1cccc(Cl)c1 (configuration not stated),"inconclusive: 89.1 µM [inhibitor, single point]",
COc1cccc(CNCCNC(=O)c2ccco2)c1OC,active: 50.1 µM,
Cn1cc(CC(=O)N2CCN(c3ccc(Cl)cc3)CC2)c2ccccc21,"inconclusive: 50.1 µM [inhibitor, partial curve]",
CCCN(CCC)C(=O)CSc1nc2ccccc2c(=O)n1CC1COc2ccccc2O1 (configuration not stated),,inactive: -5.1%
CCC1CSC(=Nc2ccc(C)cc2)N1C(=O)CN1C(=O)NC2(CCCC2)C1=O (configuration not stated),"inconclusive: 70.8 µM [inhibitor, single point]",
Cc1ccc(NC(=O)C(c2ccc(Cl)cc2)N2CCCCC2)cc1 (configuration not stated),,inactive: 14.5%
COCCNC(=O)CSc1cc(-c2ccccc2)c2ccc(OC)cc2n1,,inactive: -15%
N#C/C(=C/c1ccccc1OCc1ccc(F)cc1)c1ccc(C(=O)O)cc1,"inconclusive: 89.1 µM [inhibitor, single point]",
COC(=O)c1c(N)n(-c2ccc(N3CCOCC3)cc2)c2nc3ccccc3nc12,"inconclusive: 50.1 µM [inhibitor, partial curve]",
CCN1C(=O)/C(=C/c2ccc(OCc3ccc(C(=O)O)cc3)c(Cl)c2)NC1=S,"inconclusive: 56.2 µM [inhibitor, partial curve]",
Cc1cc(SCC(=O)NN)c2cc(Br)ccc2n1,"inconclusive: 31.6 µM [inhibitor, partial curve]",
O=C1CSC(=S)N1/N=C/c1ccc(O)c([N+](=O)[O-])c1,active: 50.1 µM,
CN(C)c1oc(-c2ccccc2Cl)nc1C#N,"inconclusive: 44.7 µM [inhibitor, partial curve]",
O=C(/C=C/c1ccco1)Nc1ccc(Oc2ccc(Cl)cc2)cc1,"inconclusive: 31.6 µM [inhibitor, partial curve]",
Cc1ccc(S(=O)(=O)N2CCC(C(N)=O)CC2)cc1[N+](=O)[O-],,inactive: 11.5%
Cc1ccc(-c2nc(-c3ccc(Cl)cc3)sc2CC(=O)O)c(C)c1,,inactive: 10.7%
COc1cccc(C(=O)NC2CC3CCCC(C2)N3CC(=O)Nc2ccccc2)c1 (configuration not stated),"inconclusive: 89.1 µM [inhibitor, single point]",
CCOc1ccccc1OCC(=O)Nc1cc(S(=O)(=O)N2CCCCC2)ccc1N1CCN(CC)CC1,,inactive: -1.47%
COc1cccc(-n2cnnn2)c1,"inconclusive: 89.1 µM [inhibitor, single point]",
O=C(Nc1cc2c3c(c1)C1CCCC1CN3CC1CCCC21)c1ccccc1 (configuration not stated),active: 28.2 µM,
CCOc1ccc(C(C)(O)CN2CCOCC2)cc1 (configuration not stated),,inactive: -0.853%

Structure (SMILES),Potency,"activity change, negative = inhibition"
COc1ccc(/C=C/CN2CCCC(C(=O)c3ccc(OC)c(F)c3)C2)cc1 (configuration not stated),"inconclusive: 20 µM [inhibitor, full curve]",
O=C(NCCCN1CCN(CCCNC(=O)c2ccccc2F)CC1)c1ccccc1F,,inactive: 7.58%
O=C(COc1ccc(Br)cc1Cl)c1ccc[nH]1,"inconclusive: 70.8 µM [inhibitor, single point]",
CC(/C=C/c1ccco1)=N\NC(=O)COc1ccc(C)c(C)c1,"inconclusive: 50.1 µM [inhibitor, partial curve]",
CS(=O)(=O)/C(C#N)=C\c1cnc(S(=O)(=O)c2ccccc2)s1,active: 50.1 µM,
CC(=O)N1CCCc2cc(S(=O)(=O)N3CCC(C(=O)NCCC(C)C)CC3)ccc21,,inactive: 7.02%
CCOC(=O)Cc1c(C)nc(N)[nH]c1=O,,inactive: 1.22%
O=C(Nc1cccc(C(F)(F)F)c1)Oc1ccc(Cl)c2cccnc12,active: 17.8 µM,
COc1ccc(-c2cc(C(=O)Nc3c(C(=O)c4ccc(Cl)cc4)oc4ccccc34)no2)cc1,"inconclusive: 89.1 µM [inhibitor, single point]",
COc1ccc(C(=O)Nc2cccnc2Cl)cc1OC,"inconclusive: 89.1 µM [inhibitor, single point]",
CCOC(=O)c1cn(CC(=O)Nc2ccc(C(C)C)cc2)nn1,"inconclusive: 89.1 µM [inhibitor, single point]",
Nc1cc(=O)[nH]c(SCC(=O)Nc2ccccc2Sc2ccc(Cl)cc2)n1,,inactive: -18%
CCCCON1C(=O)c2cccc3cccc(c23)C1=O,"inconclusive: 89.1 µM [inhibitor, single point]",
Cc1ccc(NC(=O)CSC(C)C(=O)OC(C)C(=O)NC2CCCCC2C)cc1 (configuration not stated),,inactive: 10.4%
COc1cccc(/C=N/NC(=S)Nc2cccc(S(=O)(=O)N(C)C)c2)c1,"inconclusive: 28.2 µM [inhibitor, partial curve, poor fit]",
CC1(c2ccc(Cl)cc2)NC(=S)N2C1NC(=S)N2c1ccccc1 (configuration not stated),active: 50.1 µM,
CCOc1ccc(CCNS(=O)(=O)c2cc3c(cc2C)NC(=O)CO3)cc1OCC,,inactive: 2.52%
CCOC(=O)N1CCC(n2c(SCC(=O)N3CCCC3)nc3ccccc3c2=O)CC1,,inactive: -2.58%
COc1ccc(CCNC(=S)NC(=O)c2cccc([N+](=O)[O-])c2)cc1OC,"inconclusive: 39.8 µM [inhibitor, partial curve]",
Cn1c(C(=O)NCc2ccc(F)cc2)cc2c(=O)n(C)c3ccccc3c21,,inactive: -26.5%
Cc1cc(=O)oc2cc(OCC(=O)Nc3c(C)n(C)n(-c4ccccc4)c3=O)c(Cl)cc12,active: 79.4 µM,
O=C(CSc1nc2nn(-c3ccccc3)c(=O)c-2c2n1CCCCC2)c1ccc(O)c(O)c1,active: 10 µM,
O=C(Nc1ccccc1Oc1ccccc1)c1cc([N+](=O)[O-])ccc1Cl,"inconclusive: 39.8 µM [inhibitor, partial curve]",
CCS(=O)(=O)c1ncc(N(Cc2ccco2)Cc2sccc2C)c(C(=O)Nc2cc(C)ccc2C)n1,"inconclusive: 56.2 µM [inhibitor, partial curve, poor fit]",
